The whole screen tested about 410,000 compounds, of which about 5,000 (1.2%) were called active. The shares of active, inactive and inconclusive entries below differ from those in the screen. The call rests on the fitted dose curve; in most records, active means well fitted inhibition curve with a large enough effect; inconclusive means small, poorly fitted or top-dose-only effect; inactive means no such curve, though single readings can be large or run the other way. A potency beside an inconclusive call is a rough fit, not a confirmed value. Some compounds were tested as several samples or in several runs, with calls that do not always agree.
Assay: qHTS for Inhibitors of TGF-b; further: nearly all actives have a fitted effect of over 65% in size
Details: HepG2 CAGA-GFP TGF-b/SMAD3 reporter, GFP fluorescence, 18 h, TGF-beta stimulated, 500 pg/mL final; series mostly up to 46.1 µM; activity, negative = inhibition: at the top concentration
Outline: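 Inhibition of TGF-beta-driven CAGA-GFP reporter expression in HEPG2 cells is measured by cellular GFP fluorescence after 18 h stimulation with 500 pg/mL recombinant TGF-beta in 1% FBS medium at 37 degrees C.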
On the % scale 0 is the no-effect control and ±100 the full control effect; potency means the concentration at half of the fitted maximal effect; tags describe the fitted curve by direction and shape.

| Structure (SMILES) | Potency | activity, negative = inhibition |
| --- | --- | --- |
| COc1ccc(NC(=O)c2ccc(-c3nc(CSc4ccccc4)c(C)o3)cc2)cc1OC | inconclusive: 8.91 µM [inhibitor, partial curve, poor fit] | – |
| Cc1ccc(N2C(=S)N=C(Nc3ccccc3C)C23CCOC(C)(C)C3)cc1 (centres undefined) | inconclusive: 35.5 µM [inhibitor, single point] | – |
| COc1cc(NC(=O)CCl)ccc(=O)c1 | inconclusive: 35.5 µM [inhibitor, single point] | – |
| COc1cc(CNc2nnnn2C)ccc1OCc1ccc(F)cc1Cl | – | inactive: 2.39% |
| Cn1nc([N+](=O)[O-])nc1Oc1ccc(C(C)(C)C)cc1 | – | inactive: 8.94% |
| CN(C)CCCn1c2c(c(SCC(=O)Nc3ccc4c(c3)OCCO4)nc1=O)CCCC2 | – | inactive: -1.31% |
| CCCC[C@H]1CCCO[C@@](C(=O)NCc2cc(C)n(C)n2)(C(F)(F)F)C1 | inconclusive: 35.5 µM [inhibitor, single point] | – |
| CCN(CC)CCCN(C(=O)c1cccc(C)c1)c1nc(-c2ccc(OC)cc2)cs1 | inconclusive: 35.5 µM [inhibitor, single point] | – |
| CCc1ccc(S(=O)(=O)c2nnn3c2nc(NC2CCCCCC2)c2sccc23)cc1 | – | inactive: 21.4% |
| COc1cccc2c1Oc1ncccc1N(C(=O)Nc1ccc(F)c(Cl)c1)C2 | inconclusive: 12.6 µM [inhibitor, partial curve, poor fit] | – |
| CCn1c(C(=O)N2CCC(C(=O)NCCc3ccc(OC)cc3OC)CC2)cc2sccc21 | inconclusive: 7.94 µM [inhibitor, partial curve, poor fit] | – |
| CCCCC(=O)NC(=S)Nc1cccc(Cl)c1N1CCCCC1 | inconclusive: 6.31 µM [inhibitor, full curve] | – |
| Cc1ccc(C(=O)CSc2nnnn2Cc2ccccc2)cc1C | – | inactive: 2.33% |
| Cc1cc(C)cc(NS(=O)(=O)c2ccc3c(c2)NC(=O)C(C)S3)c1 (centres undefined) | inconclusive: 35.5 µM [inhibitor, single point] | – |
| Cc1nc2ccccc2n1CCc1nc2c3ccccc3nc(SCC(=O)NCc3ccco3)n2n1 | inconclusive: 35.5 µM [inhibitor, single point] | – |
| O=C(Nc1cc(-c2nc3ncccc3o2)ccc1Cl)c1ccc([N+](=O)[O-])o1 | inconclusive: 3.55 µM [inhibitor, partial curve, poor fit] | – |
| CC(=O)Nc1cc(NC(C)=O)cc(-c2nc3ccccc3[nH]2)c1 | active: 7.08 µM | – |
| COc1ccccc1N1CCN(C(=O)CCS(=O)(=O)c2ccc3c(c2)NC(=O)C(C)S3)CC1 (centres undefined) | inconclusive: 35.5 µM [inhibitor, partial curve, poor fit] | – |
| COc1cc2c(O)c3c(c(-c4ccc5c(c4)OCO5)c2cc1OC)C(=O)OC3 | inconclusive: 35.5 µM [inhibitor, single point] | – |
| CCOc1ccc(NC(=O)c2nc(S(=O)(=O)Cc3ccccc3)ncc2Cl)cc1 | active: 11.2 µM | – |
| COc1ccc(C(CNC(=O)COc2ccc(Cl)c(C)c2)N2CCOCC2)cc1 (centres undefined) | inconclusive: 7.94 µM [inhibitor, partial curve, poor fit] | – |
| CCN(CC)CCNC(=O)c1ccc2c(c1)sc1nc(-c3ccc(F)cc3)cn12 | active: 11.2 µM | – |
| CCCn1nc([N+](=O)[O-])c(C(C#N)c2nc3ccccc3o2)c(Cl)c1=O (centres undefined) | inconclusive: 1.41 µM [inhibitor, partial curve, poor fit] | – |

| Structure (SMILES) | Potency | activity, negative = inhibition |
| --- | --- | --- |
| CCOC(=O)N1CCN(CC(O)COC2CC(C)CC(C)(C)C2)CC1 (centres undefined) | – | inactive: -15.7% |
| CCc1nc2ccc(C(=O)N(C)Cc3ccccc3)cn2c1N(C)Cc1ccc(OC)cc1 | inconclusive: 20 µM [inhibitor, single point] | – |
| CCCCCCCCCCOC(=O)Cn1c(COc2ccccc2OC)[n+](C)c2ccccc21 | inconclusive: 20 µM [inhibitor, single point] | – |
| FC(F)(F)c1ccc(Cl)c(NC(=S)N/N=C/c2ccccc2Cl)c1 | – | inactive: -5.25% |
| O=C(c1cc(-c2ccccn2)nc2ccc(Cl)cc12)N1CCN(CCc2ccccc2)CC1 | inconclusive: 11.2 µM [inhibitor, single point] | – |
| CCCN(CC1CC1)C(=O)CSc1ncnc2sc(C)c(C)c12 | inconclusive: 12.6 µM [inhibitor, partial curve] | – |
| COc1ccc(-c2cc(CNc3nc(NC(C)C)nc4cc(-c5ccccc5)sc34)on2)cc1 | inconclusive: 35.5 µM [inhibitor, single point] | – |
| c1ccc(CCCNc2ncnc3nc[nH]c23)cc1 | inconclusive: 35.5 µM [inhibitor, single point] | – |
| O=C(CSc1ncc(-c2ccc(F)cc2)n1Cc1ccco1)Nc1ccc2c(c1)OCO2 | inconclusive: 35.5 µM [inhibitor, single point] | – |
| COc1cccc(CNC(=O)c2nnn(CC(=O)Nc3cccc(C)c3)c2N)c1 | – | inactive: -7.58% |
| CN(CC(=O)Nc1ccc(S(=O)(=O)N2CCCC2)cc1)Cc1ccc(Cl)c(Cl)c1 | inconclusive: 20 µM [inhibitor, partial curve, poor fit] | – |
| CCOc1cc(CNc2ccc(O)cc2)ccc1OCc1ccc(Cl)cc1 | active: 12.6 µM | – |
| O=C(OCC(=O)C12CC3CC(CC(C3)C1)C2)c1ccc(O)cc1O | inconclusive: 25.1 µM [inhibitor, single point] | – |
| CCCCC(=O)/C=C/n1c(=S)oc2ccccc21 | active: 5.01 µM | – |
| Cc1ccc(N(CC(=O)NCCc2ccccc2)S(=O)(=O)N(C)C)cc1 | – | inactive: -7.01% |
| CCc1cccc(NC(=O)Nc2csc3c2CCCC3)c1 | inconclusive: 3.16 µM [inhibitor, single point] | – |
| CCc1cccc(NC(=O)CC2Oc3ccccc3NC2=O)c1 (centres undefined) | inconclusive: 35.5 µM [inhibitor, single point] | – |
| O=C(CN1C(=O)CCc2cc(S(=O)(=O)N3CCOCC3)ccc21)NCc1ccc(F)cc1 | inconclusive: 35.5 µM [inhibitor, single point] | – |
| Cc1ccc(NC(=O)CNC(=O)c2cccc(C)c2)nc1 | inconclusive: 17.8 µM [inhibitor, single point] | – |
| COCCC(=O)N1CCC(Oc2ccc(C(=O)N(C)Cc3cc(C)no3)cc2)CC1 | inconclusive: 20 µM [inhibitor, single point] | – |
| Cc1ccc(CNC(=O)c2ccc3c(c2)nc(C)n3-c2cc(C)cc(C)c2)cc1 | inconclusive: 14.1 µM [inhibitor, single point] | – |
| COc1ccc(-c2csc(NC(=O)c3cc(=O)c4ccccc4o3)n2)cc1OC | – | inactive: 0.779% |
| Cn1c(O)c(N=NC(=O)CNC(=O)c2ccccc2)c2ccccc21 | – | inactive: -28.3% |

| Structure (SMILES) | Potency | activity, negative = inhibition |
| --- | --- | --- |
| Cc1ccc(C)c(N2C(=O)N(Cc3cc(=O)n4ccccc4n3)c3ccccc3S2(=O)=O)c1 | inconclusive: 22.4 µM [inhibitor, single point] | – |
| Cc1ccc(-n2nc3c(c2NC(=O)/C=C\c2ccc4c(c2)OCO4)CSC3)cc1 | – | inactive: -2.94% |
| CCC1CCCCN1CCCNC(=O)c1cc2c(Cl)nc3ccccc3c2s1 (centres undefined) | inconclusive: 35.5 µM [inhibitor, single point] | – |
| Cc1ccc(C)n1-c1nnc(N2CCCC(C(=O)Nc3ccc(C(C)C)cc3)C2)s1 (centres undefined) | active: 7.94 µM | – |
| COc1ccc(-c2cnc3c(NC=O)cc(-c4ccc(C(=O)N5CCOCC5)cc4)cn23)cc1OC | inconclusive: 7.94 µM [inhibitor, partial curve, poor fit] | – |
| CCOC(=O)c1c(NC(C)=O)sc2c1CCC(C=O)=C2Sc1ccccc1 | inconclusive: 20 µM [inhibitor, single point] | – |
| COc1cccc(Oc2nc(-c3ccccc3O)nc3ccccc23)c1 | – | inactive: -4.82% |
| CCCCOc1ccc(C(=O)CCN2CCOCC2)cc1 | inconclusive: 31.6 µM [inhibitor, single point] | – |
| O=C(O)[C@H](Cc1ccccc1)NC(=O)N1CCOCC1 | – | inactive: -3.69% |
| Fc1cccc(NC(=S)N2CCc3ccccc32)c1 | inconclusive: 17.8 µM [inhibitor, partial curve] | – |
| CC(C)Cn1c(=O)c2ccccc2n2c(CCC(=O)N3CCN(c4ccccc4F)CC3)nnc12 | – | inactive: -27.2% |
| CN1CCN(S(=O)(=O)c2ccc([N+](=O)[O-])cc2)CC1 | – | inactive: -22.9% |
| CC(=O)Nc1ccc(S(=O)(=O)Nc2ccc(Nc3ccccc3)cc2)cc1 | inconclusive: 3.55 µM [inhibitor, partial curve] | – |
| COc1ccc(N2CCN(Cc3ccc(Br)s3)CC2)cc1 | inconclusive: 8.91 µM [inhibitor, partial curve, poor fit] | – |
| CCOC(=O)C1(Cc2ccccc2C)CCCN(C(=O)CSC)C1 (centres undefined) | – | inactive: -3.29% |
| CCn1cc(C(=O)N2CCN(c3cccc(Cl)c3)CC2)c(=O)c2cc(S(=O)(=O)N3CCCCC3)ccc21 | inconclusive: 1 µM [inhibitor, full curve] | – |
| C=CCOC(=O)C(C#N)c1nc2ccccc2nc1N1CCN(c2ccccc2OC)CC1 (centres undefined) | – | inactive: -12.1% |
| C=C(C)COc1ccc(-c2n[nH]c(C)c2-c2ccc(Br)cc2)c(O)c1 | active: 12.6 µM | – |
| CN(C(=O)CSc1nnc(-c2ccccc2)c(-c2ccccc2)n1)C1CCS(=O)(=O)C1 (centres undefined) | inconclusive: 35.5 µM [inhibitor, single point] | – |
| N#Cc1c(N)oc(-c2ccco2)c1-c1ccco1 | – | inactive: 18.2% |
| CCC(C)N(CCNC(=O)c1ccc2c(c1)NC(=O)c1ccccc1S2)C1CCCCC1 (centres undefined) | inconclusive: 22.4 µM [inhibitor, single point] | – |
| CCCn1nc(NC(=O)c2ccco2)c2cc3ccc(C)cc3nc21 | inconclusive: 35.5 µM [inhibitor, single point] | – |
| O=C1C(=O)N(CCS(=O)(=O)c2ccccc2)c2ccc(Cl)cc21 | active: 22.4 µM | – |

From PubChem BioAssay AID588855 (National Center for Advancing Translational Sciences (NCATS), 2011)
